This note sets out measurements from the supplement of paper PMC10322689.

Several values for one entry are separate records, joined by “and”; a condition that tells them apart may be missing. Identical values can stand only once. Counter-ions that a name gives are not always drawn. The list shows a part of the results. Repeats are few or missing, and single values can be far off.

The assay deals with mouse mesenchymal chondrosarcoma cells (HEY1-NCOA2). In words: XTT absorbance relative to DMSO control (cell viability) (fraction of DMSO control); higher = more viable cells / less growth inhibition. (In general: Formazan colour is commonly taken as a measure of viable cells.)
As to `Cc1cnc(-c2cnc(NCCNc3ccc(C#N)cn3)nc2-c2ccc(Cl)cc2Cl)[nH]1`, the XTT absorbance turned out to be 0.865.

With `C[C@@H]1C[C@H]2O[C@@H]2/C=C\C=C\C(=O)Cc2c(Cl)c(O)cc(O)c2C(=O)O1` [radicicol], the XTT absorbance is 0.599.

Compound `O=c1c2ccccc2[nH]c(=S)n1CCN1CCC(=C(c2ccc(F)cc2)c2ccc(F)cc2)CC1` [Diacylglycerol kinase inhibitor II] gave an XTT absorbance of 0.93.

Turning to `CC(C)C[C@H](NC(=O)[C@@H](O)[C@H](N)Cc1ccccc1)C(=O)O` [Bestatin], the XTT absorbance was determined as 1.02.

In turn, `Cc1c[nH]c(/C=C2\C(=O)Nc3ccccc32)c1CCC(=O)O` displayed an XTT absorbance of 0.926.

`C#Cc1cccc(Nc2ncnc3cc(OCCOC)c(OCCOC)cc23)c1` [erlotinib] registered an XTT absorbance of 0.92.

The compound `COC(=O)[C@H](CC(C)C)NC(=O)c1ccc(NC[C@@H](N)CS)cc1-c1ccccc1` came in with an XTT absorbance of 0.91.

In turn, `O=Nc1c(-c2c(O)[nH]c3ccccc23)[nH]c2ccccc12` [indirubin-3'-monoxime] had an XTT absorbance of 0.957.

For `Clc1ccccc1CNCC1CCC(CNCc2ccccc2Cl)CC1` (stereo unspecified), the XTT absorbance was 1.05.

`Cc1cccc(-c2nn3c(c2-c2ccnc4ccc(C(N)=O)cc24)CCC3)n1` yielded an XTT absorbance of 0.892.

Turning to `COc1cc2/c(=N/c3ccc(Br)cc3F)nc[nH]c2cc1OCC1CCN(C)CC1` [Vandetanib], the XTT absorbance was determined as 0.805.

The compound `CC(C)C(C(=O)O)N1C(=O)C(=Cc2ccc(Br)cc2)SC1=S` (stereo unspecified) showed an XTT absorbance of 0.937.

With `CCOC(=O)C1=C(C)NC(=S)NC1c1cccc(O)c1` (stereo unspecified) [Monastrol], the XTT absorbance came to 0.923.

As for `Cc1cc([N+](=O)[O-])ccc1NS(=O)(=O)c1cc(Cl)ccc1Cl`, the XTT absorbance amounted to 1.

In the case of `CO[C@H]1C[C@@H]2CC[C@@H](C)[C@@](O)(O2)C(=O)C(=O)N2CCCC[C@H]2C(=O)O[C@H]([C@H](C)C[C@@H]2CC[C@@H](OC(=O)C(C)(CO)CO)[C@H](OC)C2)CC(=O)[C@H](C)/C=C(\C)[C@@H](O)[C@@H](OC)C(=O)[C@H](C)C[C@H](C)/C=C/C=C/C=C/1C` [temsirolimus], the XTT absorbance turned out to be 0.819.

For `Cc1nc(Nc2ncc(C(=O)Nc3c(C)cccc3Cl)s2)cc(N2CCN(CCO)CC2)n1` [dasatinib], the XTT absorbance stood at 0.575.

For `CCCS(=O)(=O)Nc1ccc(F)c(C(=O)c2c[nH]c3ncc(-c4ccc(Cl)cc4)cc23)c1F` [Vemurafenib], the XTT absorbance is 1.02.

On to `COc1cccc2c1C(=O)c1c(O)c3c(c(O)c1C2=O)C[C@@](O)(C(C)=O)C[C@@H]3O[C@H]1C[C@H](N)[C@H](O)[C@H](C)O1` [Daunorubicin, HCl], for which the XTT absorbance came to 0.235.

For the compound `Nc1ncnc2nc(-c3ccc(N4CCOCC4)nc3)cc(-c3cccc(Br)c3)c12`, the XTT absorbance is 0.971.

As for `O=C(O)c1cc(NCc2cc(O)ccc2O)ccc1O` [Lavendustin C], the XTT absorbance is 0.969.

With `Oc1nc(-c2ccc(C(F)(F)F)cc2)nc2c1CSCC2`, the XTT absorbance is 0.901.

In the case of `NC(=O)c1ccccc1` [Benzamide], the XTT absorbance stood at 0.877.

In turn, `NNCCc1ccccc1` [Phenelzine] displayed an XTT absorbance of 0.975.

Take `CCCCCCCCCCC[C@@H](C[C@@H]1OC(=O)[C@H]1CCCCCC)OC(=O)[C@H](CC(C)C)NC=O` [orlistat]: the XTT absorbance is 0.983.

`C[C@H](NC(=O)/C(C#N)=C/c1cccc(Br)n1)c1ccccc1` came in with an XTT absorbance of 1.01.

On to `Ic1cccc(CSc2nnc(-c3ccncc3)o2)c1` [GSK-3 inhibitor II], for which the XTT absorbance was 0.86.

As for `CN(C)c1ccccc1CN1CCCN(Cc2ccccc2N(C)C)C1c1ccncc1`, the XTT absorbance was 1.

`Cc1ccc(NC(=O)c2ccc(CN3CCN(C)CC3)cc2)cc1Nc1nccc(-c2cccnc2)n1` [imatinib mesylate]: the XTT absorbance came to 0.894.

`COc1cccc(-c2cc(=O)c3ccccc3o2)c1N`: the XTT absorbance was 0.858 and 0.902.

For the compound `CC(C)(C)NC(=O)[C@H]1CC[C@H]2[C@@H]3CC[C@H]4NC(=O)C=C[C@]4(C)[C@H]3CC[C@]12C` [Finasteride], the XTT absorbance was found to be 1.

`Fc1ccc(Cl)cc1-c1nc(Nc2ccncc2)c2nccnc2n1` showed an XTT absorbance of 0.853.

In turn, `C/C=C/C/C=C/CCC(=O)[C@H]1O[C@H]1C(N)=O` [Cerulenin] yielded an XTT absorbance of 0.942.

`COc1cc2ncnc(Nc3ccc(F)c(Cl)c3)c2cc1OCCCN1CCOCC1` [gefitinib] returned an XTT absorbance of 0.857.

Consider `NC(=O)c1ccc(I)c([N+](=O)[O-])c1` [BSI-201 (Iniparib)], for which the XTT absorbance came to 0.989.

As for `C[C@@H](N)[C@H]1CC[C@H](C(=O)Nc2ccncc2)CC1`, the XTT absorbance is 0.906 and 0.909.

In turn, `CCCCC[C@H](CC(=O)NO)C(=O)N[C@H](C(=O)N1CCC[C@H]1CO)C(C)C` [Actinonin] gave an XTT absorbance of 0.922.
